Data: PubChem BioAssay AID1030 (National Center for Advancing Translational Sciences (NCATS), 2008)
The whole screen tested about 220,000 compounds, of which about 16,000 (7.3%) were called active. The inconclusive results got no clear call from the source; some entries with a clear call stand among them for comparison. Calls follow the shape of the dose curve; as a rule, active = well fitted inhibition curve with a large enough effect (not every such curve was filed as active); inconclusive = small, poorly fitted or top-dose-only effect, or another doubt; inactive = no such curve, though single readings can be large or run the other way. Potencies of inconclusive entries are left out as doubtful fits.

Biological target: Aldehyde dehydrogenase 1A1 (Homo sapiens) (UniProt P00352)
UniProt P00352, sequence (P00352 whole entry, looked up): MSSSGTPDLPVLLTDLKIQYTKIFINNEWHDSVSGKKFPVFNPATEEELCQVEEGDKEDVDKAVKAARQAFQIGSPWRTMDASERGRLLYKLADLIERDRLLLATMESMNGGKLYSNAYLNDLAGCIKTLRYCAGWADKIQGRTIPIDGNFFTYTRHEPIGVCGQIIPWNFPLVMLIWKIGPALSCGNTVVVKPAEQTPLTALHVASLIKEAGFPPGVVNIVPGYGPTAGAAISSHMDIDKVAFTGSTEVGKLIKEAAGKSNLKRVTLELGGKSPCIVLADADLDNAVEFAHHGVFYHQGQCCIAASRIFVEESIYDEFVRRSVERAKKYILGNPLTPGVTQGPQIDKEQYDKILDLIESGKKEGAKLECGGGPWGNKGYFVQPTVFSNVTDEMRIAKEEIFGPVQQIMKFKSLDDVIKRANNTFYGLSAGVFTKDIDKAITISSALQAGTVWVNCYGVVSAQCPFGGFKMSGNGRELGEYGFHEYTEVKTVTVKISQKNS
Assay: qHTS Assay for Inhibitors of Aldehyde Dehydrogenase 1 (ALDH1A1);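 as to activity, negative = inhibition: plate controls were no enzyme wells and a reference inhibitor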
Settings: Purified ALDH1A1, NADH fluorescence, propionaldehyde substrate; series mostly up to 75.3 µM; activity, negative = inhibition: at the top concentration
Potency is read from the fitted curve at half-maximal effect; tags tell the direction and shape of the fitted curve.

Structure (SMILES) | activity, negative = inhibition | Potency
CCN(CC)CCNC(=O)c1c(C)oc2cc(Br)c(OC)cc12 | inactive: 5.26% | 
CCn1c(SCC(=O)Nc2sc3c(c2C#N)CCCC3)nnc1-c1ccncc1 |  | active: 17.8 µM
Cc1ccc(OCCCOc2cccc3cccnc23)cc1C | inactive: 5.03% | 
NC(=S)N/N=C/c1ccccc1[N+](=O)[O-] |  | active: 22.4 µM
Brc1ccc(CN2CCN(c3ccccn3)CC2)s1 |  | inconclusive [inhibitor, single point]
O=C1C(Cc2ccccc2)S/C(=N/N=C/c2ccco2)N1c1ccccc1 (stereo not drawn) |  | inconclusive [inhibitor, single point]
Cc1cc(NS(=O)(=O)c2ccc(Nc3nc(-c4sc(NC(=O)c5ccccc5)nc4C)cs3)cc2)no1 |  | inconclusive [inhibitor, single point]
CCn1c(NCCO)nc2c(c1=O)C(C)(CC)Cc1ccccc1-2 (stereo not drawn) |  | inconclusive [inhibitor, partial curve]
CCCCNC(=O)COC(=O)c1ccc(NS(=O)(=O)c2ccc3c(c2)OCCO3)cc1 | inactive: -10.3% | 
CCOc1cc(CNc2ccccc2SC)ccc1O |  | inconclusive [inhibitor, single point]
O=C(CCC(=O)Nc1nnc(C2CCCCC2)s1)NCC1CCCO1 (stereo not drawn) |  | inconclusive [inhibitor, single point]
O=S(=O)(NC1CC2CCC1C2)c1ccc(Br)s1 (stereo not drawn) |  | inconclusive [inhibitor, partial curve]
Cc1ccc(S(=O)(=O)N2CCN(Cc3ccccn3)CC2)cc1 |  | inconclusive [inhibitor, partial curve, poor fit]
OC(CNC1CCCc2ccccc21)COc1c(Cl)cccc1Cl (stereo not drawn) |  | inconclusive [inhibitor, single point]
CN(Cc1ccco1)c1ncncc1-c1cccc(C#N)c1 | inactive: -9.19% | 
COc1ccc(NCc2nnc(SCC(=O)Nc3ccc(OC)cc3OC)o2)cc1 |  | inconclusive [inhibitor, single point]
Cc1ccc2c(c1)sc[n+]2Cc1ccccc1 |  | inconclusive [inhibitor, partial curve]
Cc1cc(C)c2c(N)c(C(=O)NC3CCCC3)sc2n1 |  | inconclusive [inhibitor, single point]
COc1ccccc1S(=O)(=O)Cc1ccc(C(=O)N2CCN(c3cccc(Cl)c3)CC2)o1 |  | inconclusive [inhibitor, partial curve]
CCN1C(=O)c2cccc3c(NC(=O)c4ccccc4)ccc1c23 |  | inconclusive [inhibitor, partial curve]
COc1cc(C=Nc2cccc([N+](=O)[O-])c2C)ccc1OC(C)=O |  | inconclusive [inhibitor, single point]
CCCOc1ccc(-c2c(C(=O)N/N=C/c3ccc(OCC)cc3)nnn2-c2nonc2N)cc1 |  | inconclusive [inhibitor, single point]
CCC(=O)N1CCc2cc(S(=O)(=O)NCCC(=O)NC3CCCc4ccccc43)ccc21 (stereo not drawn) | inactive: 1.14% | 
O=C(NC(=S)Nc1ccccc1N1CCCC1)c1ccc(F)cc1 |  | active: 7.51 µM
Cc1cccn2c(=O)c3cc(C#N)c(=NC(=O)c4ccncc4)n(CCCOC(C)C)c3nc12 |  | inconclusive [inhibitor, partial curve]

Structure (SMILES) | activity, negative = inhibition | Potency
COc1cccc2cc(C(C)N(CCCN3CCOCC3)C(=O)Nc3ccccc3)oc12 (stereo not drawn) |  | inconclusive [inhibitor, single point]
Cc1cc(C(=O)CSC(=S)SC(C)(C)C)ccc1Cl | inactive: 3.18% [at 13.5 µM] | 
COC(=O)C(N)Cc1ccc(Cl)cc1 (stereo not drawn) | inactive: 13.5% | 
CCCCCNC(=O)c1ccc2c(=O)[nH]c3c(C(=O)NCC4CCCO4)sc(=S)n3c2c1 (stereo not drawn) |  | inconclusive [inhibitor, single point]
CCOC(=O)/C=C(\C)Sc1cc(=O)oc2ccccc12 |  | inconclusive [inhibitor, partial curve]
Cc1cccc(NC(=O)c2cc([N+](=O)[O-])ccc2N2CCCCC2)n1 |  | inconclusive [inhibitor, partial curve, poor fit]
c1ccncc1 | inactive: 0.807% | 
O=C(CCS(=O)(=O)c1cccc2nonc12)N1CCN(c2ccc(F)cc2)CC1 |  | inconclusive [inhibitor, single point]
CCn1c(SCC(=O)Nc2sc3c(c2C#N)CCCC3)nnc1-c1ccco1 | inactive: 9.93% | 
Nn1cnnc1SCC(=O)Nc1ccc(C2CCCCC2)cc1 |  | active: 11.2 µM
C(/C=C/c1ccco1)=N/N1CCN(c2ccccc2)CC1 |  | inconclusive [inhibitor, single point]
COc1ccc(N=C2SC(C(=O)Nc3ccc4c(c3)OCO4)CC(=O)N2C)cc1 (stereo not drawn) |  | inconclusive [inhibitor, single point]
COC(=O)c1sccc1NC(=O)c1ccncc1 | inactive: -3.75% | 
COc1cccc(CNC(=O)CCC2CCCN(C(=O)c3ccoc3C)C2)c1 (stereo not drawn) |  | active: 22.4 µM
CC(=O)OCc1c(C(F)(F)F)nn(C)c1Sc1ccccc1 | inactive: 11.7% | 
CC1(C)Cc2nc3sc4c(=O)n(Cc5ccccc5)cnc4c3cc2CS1 |  | inconclusive [inhibitor, partial curve]
Cc1ccccc1N=C1NC(=O)CC(c2ccccc2)S1 (stereo not drawn) |  | inconclusive [inhibitor, partial curve]
CCOC(=O)c1c(C)[nH]c(C)c1C(=O)CSc1nc2ccccc2c(=O)n1-c1ccc(CC)cc1 |  | inconclusive [inhibitor, partial curve]
COc1ccc(-n2c3nc4ccccc4nc3c3c(=N)oc(C)nc32)cc1 |  | inconclusive [inhibitor, single point]
O=C(N/N=C/c1ccc[nH]1)c1cccnc1 | inactive: 2.7% | 
Cc1csc2ncc(C(=O)Nc3ccon3)c(=O)n12 |  | inconclusive [inhibitor, partial curve]
Cc1sc(NC(=O)c2ccc(=O)n(C)n2)nc1-c1ccccc1 |  | active: 28.2 µM
CCC(C)NC(C(=O)Nc1ccc(Cl)c([N+](=O)[O-])c1)c1ccccc1 (stereo not drawn) |  | inconclusive [inhibitor, partial curve]
O=C(O)C1=C(OCc2ccc(F)c(F)c2)C(=O)NCC1 | inactive: -18.4% | 
O=C(Nc1ccccc1-c1ccccc1)c1cnccn1 |  | inconclusive [inhibitor, single point]

Structure (SMILES) | activity, negative = inhibition | Potency
COC(=O)c1nnn(-c2nonc2N)c1CSc1ccccn1 |  | inconclusive [inhibitor, single point]
CC(NS(=O)(=O)c1cccc(Cl)c1)C(=O)Nc1ccc(-c2nc3ccccc3s2)cc1 (stereo not drawn) |  | inconclusive [inhibitor, single point]
COC(=O)c1c(N)c(C#N)c(C)n1-c1ccccc1 |  | inconclusive [inhibitor, single point]
N#Cc1ccccc1NC(=O)C1CC(=O)N(c2ccc3c4c(cccc24)CC3)C1 (stereo not drawn) |  | inconclusive [inhibitor, single point]
Cc1ccc(-c2nc3sc4c(c3c(=O)n2N)CCCC4)cc1 |  | inconclusive [inhibitor, single point]
COc1ccc(C)cc1NC(=O)c1cc2c(CO)cnc(C)c2oc1=N | inactive: 7.04% | 
O=C(COCc1nc2ccccc2c(=O)[nH]1)NCC1CCCCC1 | inactive: -0.85% | 
COc1ccccc1C(c1nnnn1Cc1ccccc1)N1CCN(C2CCCC2)CC1 (stereo not drawn) |  | inconclusive [inhibitor, single point]
CC1CCN(C(=O)c2ccc(S(=O)(=O)Cc3cc(F)ccc3F)c([N+](=O)[O-])c2)CC1 |  | active: 7.08 µM
COC(=O)c1ccc(C(NC(=O)OCc2ccccc2)/C(C)=C/[C@@H](C)C(=O)NCc2cccnc2)cc1 (stereo partly drawn) | inactive: -5.03% | 
C#CCNC(=O)C1=C[C@@H](C)C[C@@H](OCc2ccc(CO)cc2)O1 | inactive: 0.254% | 
CC1CCCN(Cc2nc3c(c(=O)n(C)c(=O)n3C)n2Cc2c(F)cccc2Cl)C1 (stereo not drawn) |  | active: 7.94 µM
Cc1cc(N2CCCCC2)nc(SCc2ccc(C#N)cc2)n1 |  | active: 1.26 µM
COC(=O)CSc1nnc(SCc2ccc(Cl)cc2)s1 |  | inconclusive [inhibitor, single point]
COc1ccc(-c2csc(N(CC3CCCO3)C(=O)c3ccccc3)n2)cc1 (stereo not drawn) |  | inconclusive [inhibitor, partial curve, poor fit]
Cc1ccc(C)c2[nH]c(=O)c(CN(CCN3CCCC3)C(=O)Nc3ccc(F)cc3)cc12 |  | inconclusive [inhibitor, single point]
Cc1nc2sc(C(c3ccc(F)cc3)N3CCN(C(=O)c4ccco4)CC3)c(O)n2n1 (stereo not drawn) | inactive: 1.26% | 
COc1cccc(NC(=O)C2CC(=O)N(C)C(=Nc3cccc(F)c3)S2)c1 (stereo not drawn) |  | inconclusive [inhibitor, single point]
CNC(=O)c1cn(-c2ccc(Cl)cc2)c(=O)c2ccccc12 | inactive: 2.88% | 
CC(C)COc1ccc(C(=O)OCCN2CCOCC2)cc1 |  | inconclusive [inhibitor, single point]
O=C(NNC(=S)Nc1ccc(Cl)cc1Cl)C1CC1 |  | inconclusive [inhibitor, single point]
CCCN1C(=O)/C(=C/c2ccc(N3CCOCC3)cc2)NC1=S |  | active: 6.31 µM
COc1ccc(C(=O)NCc2nnc(SCC(=O)N3CCCCC3)o2)cc1OC |  | inconclusive [inhibitor, single point]
